# From US20250250343A1 (UNITY BIOTECHNOLOGY, published 2025)
# T1: VEGF (human, UniProt P15692-4)
# T1 sequence (VEGF-165 chain, looked up): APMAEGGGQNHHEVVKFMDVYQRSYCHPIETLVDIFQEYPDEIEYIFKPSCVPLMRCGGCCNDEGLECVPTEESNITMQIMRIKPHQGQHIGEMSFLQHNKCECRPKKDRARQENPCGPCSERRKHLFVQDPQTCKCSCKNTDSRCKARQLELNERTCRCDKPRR
# Legend:
# Test in all cases: cell-based or functional assay
# human Tie2 [1] = molecular target: T2, human Tie2 (human, UniProt Q02763 23-1124)
# VEGF = molecular target: T1, VEGF
# human Tie2 [2] = molecular target: T2, human Tie2; remark: listed apart in the source
# human Tie2 [3] = molecular target: T2, human Tie2; remark: listed apart in the source
# T2 sequence (Q02763 23-1124): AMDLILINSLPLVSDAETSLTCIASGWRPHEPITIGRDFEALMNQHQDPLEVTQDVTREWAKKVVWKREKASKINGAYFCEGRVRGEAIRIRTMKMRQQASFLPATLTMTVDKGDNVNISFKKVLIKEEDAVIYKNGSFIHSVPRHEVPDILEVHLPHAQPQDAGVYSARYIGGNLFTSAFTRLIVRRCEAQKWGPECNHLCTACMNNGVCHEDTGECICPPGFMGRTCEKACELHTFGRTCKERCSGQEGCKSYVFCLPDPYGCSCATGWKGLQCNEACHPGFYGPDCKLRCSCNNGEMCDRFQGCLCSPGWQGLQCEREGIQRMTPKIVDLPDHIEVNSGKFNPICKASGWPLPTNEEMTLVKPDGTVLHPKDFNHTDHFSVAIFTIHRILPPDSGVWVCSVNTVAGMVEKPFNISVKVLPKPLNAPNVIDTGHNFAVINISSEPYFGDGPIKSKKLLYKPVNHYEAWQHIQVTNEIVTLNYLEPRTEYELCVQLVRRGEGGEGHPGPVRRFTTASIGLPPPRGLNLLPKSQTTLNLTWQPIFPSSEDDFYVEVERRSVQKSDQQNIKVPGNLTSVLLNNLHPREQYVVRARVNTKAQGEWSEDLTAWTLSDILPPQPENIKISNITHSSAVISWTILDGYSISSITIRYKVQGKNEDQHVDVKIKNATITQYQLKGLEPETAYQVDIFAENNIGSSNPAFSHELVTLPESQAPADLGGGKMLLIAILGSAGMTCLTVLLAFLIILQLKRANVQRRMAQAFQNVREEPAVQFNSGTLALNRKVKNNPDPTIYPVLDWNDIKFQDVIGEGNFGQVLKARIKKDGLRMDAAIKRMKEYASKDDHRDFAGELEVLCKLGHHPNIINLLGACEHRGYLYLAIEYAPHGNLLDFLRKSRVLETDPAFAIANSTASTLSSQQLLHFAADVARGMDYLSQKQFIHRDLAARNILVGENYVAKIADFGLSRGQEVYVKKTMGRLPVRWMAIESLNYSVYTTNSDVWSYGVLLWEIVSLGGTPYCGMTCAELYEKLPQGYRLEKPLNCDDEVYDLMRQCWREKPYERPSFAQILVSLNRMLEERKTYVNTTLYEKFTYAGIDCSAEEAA
Binder,"EC50, pAkt in HUVEC (MSD ELISA) [Panel B] (human Tie2 [1]) [nM]","EC50, VEGF neutralisation, KDR/NFAT-RE HEK293 luciferase reporter (VEGF) [pM]","EC50, pTie2 in HUVEC, W/ VEGF (20 nM VEGF-165 per paragraph 153) [Panel E] (human Tie2 [2]) [nM]","EC50, pTie2 in HUVEC, W/O VEGF [Panel E] (human Tie2 [2]) [nM]","EC50, pTie2 in HUVEC (in vitro potency; the sheet's head prints no unit, EC50 in nM per legend paragraph 17) (human Tie2 [3]) [nM]"
"Construct #5 (bispecific antibody, human IgG1, kappa, L234A L235A) heavy: DVQLVESGGGVVRPGESLRLSCTASGFTFDSYGMSWVRQAPGKGLEWVSSINVGDNTYYADSVRGRFIISRDSSRNTLYLQMNSLTAEDTAVYYCANWNSFFDYWGLGTLVTVSSASTKGPSVFPLAPSSKSTSGGTAALGCLVKDYFPEPVTVSWNSGALTSGVHTFPAVLQSSGLYSLSSVVTVPSSSLGTQTYICNVNHKPSNTKVDKKVEPKSCDKTHTCPPCPAPEAAGGPSVFLFPPKPKDTLMISRTPEVTCVVVDVSHEDPEVKFNWYVDGVEVHNAKTKPREEQYNSTYRVVSVLTVLHQDWLNGKEYKCKVSNKALGAPIEKTISKAKGQPREPQVYTLPPSREEMTKNQVSLTCLVKGFYPSDIAVEWESNGQPENNYKTTPPVLDSDGSFFLYSKLTVDKSRWQQGNVFSCSVMHEALHNHYTQKSLSLSPGKGGGGSGGGGSGGGGSGGGGSEVQLVESGGGLVQPGGSLRLSCAASGYDFTHYGMNWVRQAPGKGLEWVGWINTYTGEPTYAADFKRRFTFSLDTSKSTAYLQMNSLRAEDTAVYYCAKYPYYYGTSHWYFDVWGQGTLVTVSSASTKGPSVFPLAPSSKSTSGGTAALGCLVKDYFPEPVTVSWNSGALTSGVHTFPAVLQSSGLYSLSSVVTVPSSSLGTQTYICNVNHKPSNTKVDKKVEPKSCDKTHGGGGSGGGGSGGGGSGGGGSDIQLTQSPSSLSASVGDRVTITCSASQDISNYLNWYQQKPGKAPKVLIYFTSSLHSGVPSRFSGSGSGTDFTLTISSLQPEDFATYYCQQYSTVPWTFGQGTKVEIKRTVAAPSVFIFPPSDEQLKSGTASVVCLLNNFYPREAKVQWKVDNALQSGNSQESVTEQDSKDSTYSLSSTLTLSKADYEKHKVYACEVTHQGLSSPVTKSFNRGEC light: EIVLTQSPGTLSLSPGEIATLSCRASQNVRSDLAWYQQKPGQAPRLLIYDASNRATGIPDRFSGSGSGTDFTLTISSLQSEDFAVYYCQQYSNWPPLTFGGGTKVEIKRTVAAPSVFIFPPSDEQLKSGTASVVCLLNNFYPREAKVQWKVDNALQSGNSQESVTEQDSKDSTYSLSSTLTLSKADYEKHKVYACEVTHQGLSSPVTKSFNRGEC",5.39,107,2.24,11,–
"#10 (bispecific antibody, human IgG1, kappa, L234A L235A) heavy chain: DVQLVESGGGVVRPGESLRLSCTASGFTFDSYGMSWVRQAPGKGLEWVSSINVGDNTYYADSVRGRFIISRDSSRNTLYLQMNSLTAEDTAVYYCANWNSFFDYWGLGTLVTVSSASTKGPSVFPLAPSSKSTSGGTAALGCLVKDYFPEPVTVSWNSGALTSGVHTFPAVLQSSGLYSLSSVVTVPSSSLGTQTYICNVNHKPSNTKVDKKVEPKSCDKTHTCPPCPAPEAAGGPSVFLFPPKPKDTLMISRTPEVTCVVVDVSHEDPEVKFNWYVDGVEVHNAKTKPREEQYNSTYRVVSVLTVLHQDWLNGKEYKCKVSNKALGAPIEKTISKAKGQPREPQVYTLPPSREEMTKNQVSLTCLVKGFYPSDIAVEWESNGQPENNYKTTPPVLDSDGSFFLYSKLTVDKSRWQQGNVFSCSVMHEALHNHYTQKSLSLSPGKGGGGSGGGGSDIQLTQSPSSLSASVGDRVTITCSASQDISNYLNWYQQKPGKAPKVLIYFTSSLHSGVPSRFSGSGSGTDFTLTISSLQPEDFATYYCQQYSTVPWTFGQGTKVEIKRTVAAPSVFIFPPSDEQLKSGTASVVCLLNNFYPREAKVQWKVDNALQSGNSQESVTEQDSKDSTYSLSSTLTLSKADYEKHKVYACEVTHQGLSSPVTKSFNRGECGQSSRSSGGGGSSGGGGSEVQLVESGGGLVQPGGSLRLSCAASGYDFTHYGMNWVRQAPGKGLEWVGWINTYTGEPTYAADFKRRFTFSLDTSKSTAYLQMNSLRAEDTAVYYCAKYPYYYGTSHWYFDVWGQGTLVTVSSASTKGPSVFPLAPSSKSTSGGTAALGCLVKDYFPEPVTVSWNSGALTSGVHTFPAVLQSSGLYSLSSVVTVPSSSLGTQTYICNVNHKPSNTKVDKKVEPKSCDKTHL light chain (kappa): EIVLTQSPGTLSLSPGEIATLSCRASQNVRSDLAWYQQKPGQAPRLLIYDASNRATGIPDRFSGSGSGTDFTLTISSLQSEDFAVYYCQQYSNWPPLTFGGGTKVEIKRTVAAPSVFIFPPSDEQLKSGTASVVCLLNNFYPREAKVQWKVDNALQSGNSQESVTEQDSKDSTYSLSSTLTLSKADYEKHKVYACEVTHQGLSSPVTKSFNRGEC",–,–,–,–,5.5
